Laboratory results as given in PubChem BioAssay AID1240 (Sanford-Burnham Center for Chemical Genomics, 2008).
Screen size: about 50,000 compounds; about 800 (1.6%) showed an effect of 50% or more. The list shows a part of the results.

These compounds were tested against Bcl-2-like protein 10 (Homo sapiens) (UniProt Q9HD36) (assay: TR3 peptide-Bcl-B binding displacers, biochemical primary FP assay, phenotype converters (AID 1240;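 further: 0% = Bcl-B with tracer peptide and DMSO and 100% = tracer peptide lacking Bcl-B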)). Conditions: GST-Bcl-B / FITC-TR3 peptide fluorescence polarization; stronger effect = higher value; compound at 3.75 mg/L.
Sequence of UniProt Q9HD36 (Q9HD36 whole entry, looked up): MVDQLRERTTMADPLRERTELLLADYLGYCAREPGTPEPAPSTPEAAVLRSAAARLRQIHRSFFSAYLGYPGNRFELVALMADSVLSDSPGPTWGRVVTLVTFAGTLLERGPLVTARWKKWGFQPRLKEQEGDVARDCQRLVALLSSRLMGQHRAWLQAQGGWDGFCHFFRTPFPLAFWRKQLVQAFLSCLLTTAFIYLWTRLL
`COC(=O)C1=C(C(=O)OC)SC(=C2C(=S)C(C)(C)N(C(=O)c3ccc4ccccc4c3)c3ccc(OC)cc32)S1` showed a displacement of -11.7%.
Compound `O=C1c2ccccc2-c2onc3ccc(Sc4ccccc4)c1c23` has a displacement of 17.9%.
In the case of `N#CC(=C1CCCCC1)c1nc(-c2ccc([N+](=O)[O-])cc2)cs1`, the displacement is reported as -6.6%.
Compound `O=C(CSc1cccc2cccnc12)Nc1nc(-c2ccccc2)cs1` has a displacement of -1.6%.
With `C=CCOc1ccccc1/C=C1\N=C(c2ccc(C)cc2)OC1=O` the displacement was -2.1%.
Compound `CCOC(=O)C1CCN(CN2C(=O)C(=O)c3ccccc32)CC1` has a displacement of -2.3%.
For `COc1cc(/C=C2\C=C(c3ccc(Cl)cc3)OC2=O)cc(Br)c1OC`, the displacement was -9.5%.
`O=C1/C(=C\c2ccc(I)cc2)SC(=S)N1c1cccc(Cl)c1` gave a displacement of -1%.
For `C=CCN1C(=O)/C(=C\c2cc(Cl)c(OCc3ccccc3Cl)c(OC)c2)SC1=S`, the displacement was 6.1%.
With `CN1CCN(c2ccc([N+](=O)[O-])c(NC(c3ccccc3)c3ccccc3)c2)CC1` the displacement was 7.1%.
With `COC(=O)c1ccc(/C=C2/C(=O)NC(=O)N(c3cccc(C)c3)C2=O)cc1` the displacement was -8.6%.
`O=c1[nH]c(=S)n(-c2ccc(Cl)c(Cl)c2)c(O)c1/C=C1/C=Nc2ccccc21` was tested, and the displacement was -0.5%.
`COCCNC(=O)/C(=C/c1ccc(C(C)C)cc1)NC(=O)c1ccccc1` gave a displacement of 5.3%.
For `COc1ccc(-c2nc3ccccc3nc2N2CCOCC2)cc1`, the displacement was 6.7%.
Compound `C=CCOc1ccc(/C=C2/C(=O)NC(=O)N(c3ccc(C)cc3)C2=O)cc1OCC` has a displacement of -2.8%.
For `Cc1cccc(N2CCN(S(C)(=O)=O)CC2)c1C`, the displacement was -7.2%.
`O=C(/C=C/c1ccccc1Cl)NCC1CCCO1` (stereo unspecified) gave a displacement of 6.6%.
For `O=C(O)C(c1ccccc1)N1C(=O)/C(=C/C=C/c2ccccc2)SC1=S` (stereo unspecified), the displacement was -0.6%.
With `COc1ccc(C2CC(=O)C3=C(C2)Nc2ccccc2NC3c2cc3c(cc2[N+](=O)[O-])OCO3)cc1` (stereo unspecified) the displacement was 15.2%.
`CCCC(=O)NC(c1ccccc1Cl)c1ccc2cccnc2c1O` (stereo unspecified) gave a displacement of -22.9%.
`COc1cc(CN2CCN(C(=O)c3ccc([N+](=O)[O-])cc3)CC2)cc(OC)c1OC` was tested, and the displacement was 2.3%.
Compound `COc1cc(NC(=O)c2cccc(Cl)c2)cc(OC)c1` has a displacement of 3.2%.
`O=C(c1ccco1)N1CCN(Cc2c[nH]c3ccccc23)CC1` was tested, and the displacement was 3.4%.
For `COc1ccc(-c2nc3ccccc3c(C(=O)Nc3ccc(C)cc3)c2C)cc1`, the displacement was 11.2%.
In the case of `COC(=O)C1=C(C)N(C)C(=O)NC1c1ccc([N+](=O)[O-])s1` (stereo unspecified), the displacement is reported as 10.8%.
For `NC(=O)C1(c2ccccc2)CCCN1C(=O)c1ccco1` (stereo unspecified), the displacement was -2.5%.
`CCOc1ccc2c(c1)C(C)=CC(C)(C)N2S(=O)(=O)c1ccc(C)cc1` showed a displacement of -6%.
`O=C1NC(=O)N(c2cccc(Cl)c2)C(=O)/C1=C/c1ccc(Oc2ccc([N+](=O)[O-])cn2)cc1` was tested, and the displacement was 14.5%.
`COc1c(Cl)cc(C(=O)Nc2cccc(-c3nc4ncccc4o3)c2)cc1Cl` was tested, and the displacement was 3.5%.
In the case of `COc1ccccc1CNC(=O)CN(c1cccc([N+](=O)[O-])c1)S(=O)(=O)c1ccccc1`, the displacement is reported as -0.6%.
Work on `CCCCOc1ccc(NC(=O)c2cccc(OC)c2)cc1` yielded a displacement of 15%.
For `c1ccc(-n2ncc3c(N4CCN(C5CCCCC5)CC4)ncnc32)cc1`, the displacement was 2.6%.
With `COc1ccc(C(=O)OCCCN2C(=O)c3ccccc3C2=O)cc1` the displacement was 14.1%.
For `COc1ccc(/C=C/C(=O)c2ccc(Cl)cc2)c(OC)c1`, the displacement was 11%.
`O=C(O)CCCCCN1C(=O)C(=O)/C(=C(/O)c2ccc(F)cc2)C1c1ccc2c(c1)OCO2` (stereo unspecified) showed a displacement of -1.5%.
With `Fc1ccc(NC(=S)Nc2ccccn2)cc1` the displacement was -5.3%.
`CCOc1ccc(C(=O)c2ccc(Cl)cc2)cc1OCC` gave a displacement of 6.2%.
With `CC(C)c1cc(C(C)C)c(S(N)(=O)=O)c(C(C)C)c1` the displacement was -2.5%.
`Cc1cc(C)c(C(=O)/C(=C/c2ccc(Br)cc2)c2ccccc2)c(=O)[nH]1` showed a displacement of 7.1%.
Work on `COc1cccc(C2/C(=C(\O)c3ccc(C)cc3)C(=O)C(=O)N2CCCC(=O)O)c1` (stereo unspecified) yielded a displacement of 0.9%.
`O=C(OCCN1CCOCC1)c1ccc(F)cc1` gave a displacement of 1.4%.
`COc1ccc(-c2c(-c3ccc(Cl)cc3)nn(-c3ccccc3)c2N)cc1OC` showed a displacement of 9.1%.
`CCCC(=O)Oc1cc2c(C(=O)OCC)c(C)n(C)c2c2ccccc12` was tested, and the displacement was 12.2%.
Work on `CN1C2=NC(=O)/C(=C/c3ccccc3[N+](=O)[O-])N2c2ccccc21` yielded a displacement of -10.6%.
For `CN(C)c1cccc(NC(=O)c2cccc3ccccc23)c1`, the displacement was 0%.
With `CCOC(=O)C1=C(C)N=C2SCC(=O)N2C1c1ccc(-c2cccc([N+](=O)[O-])c2)o1` (stereo unspecified) the displacement was 5.1%.
Work on `O=C(N/N=C/c1ccco1)c1ccccc1` yielded a displacement of 0.2%.
Work on `Cc1ccc(NC(=O)c2cc3cc([N+](=O)[O-])ccc3oc2=O)c(C)c1` yielded a displacement of -5.8%.
With `Cc1cc(Cl)ccc1OCC(=O)NNC(=O)c1ccco1` the displacement was -0.3%.
With `O=[N+]([O-])c1cccc(Cl)c1N1CCN(S(=O)(=O)c2ccc(Cl)cc2)CC1` the displacement was 11.7%.
`COc1ccc(N2C(=O)CC(N3CCSCC3)C2=O)cc1` (stereo unspecified) gave a displacement of 3.7%.
`CCOC(=O)C1=C(C)N=c2s/c(=C\c3ccc(NC(C)=O)cc3)c(=O)n2C1c1ccccc1` (stereo unspecified) showed a displacement of -24.8%.
`COc1ccccc1N(CC(=O)NCCc1ccccc1)S(=O)(=O)c1ccccc1` was tested, and the displacement was 1.7%.
For `Cc1ccccc1Cn1c(-c2nonc2N)nc2ccccc21`, the displacement was 14.6%.
`Cc1ccc(N2C(=O)NC(=O)/C(=C\c3ccc(OCc4ccc(C(=O)O)cc4)cc3)C2=O)cc1` showed a displacement of -3.6%.
Work on `CCC(C(=O)Nc1ccc(C)c(C)c1)c1ccccc1` (stereo unspecified) yielded a displacement of 8.5%.
`COc1cc(/C=C2/C(=O)NC(=O)N(c3ccc(C(C)C)cc3)C2=O)cc(Cl)c1O` was tested, and the displacement was 17.1%.
`CCOc1cc(/C=C2\SC(=S)N(NC(=O)c3ccccc3Cl)C2=O)ccc1O` gave a displacement of 1.5%.
Compound `O=C(O)C(Cc1ccccc1)N1C(=O)/C(=C/c2ccc(O)cc2)SC1=S` (stereo unspecified) has a displacement of -23.7%.
In the case of `O=C(O)c1ccc2c(c1)C(=O)N(c1ccc(-c3nc4ccccc4s3)cc1)C2=O`, the displacement is reported as -0.2%.
In the case of `COc1ccc(C(=O)N2CCN(Cc3ccccc3F)CC2)cc1OC`, the displacement is reported as 56%.
`O=C(NNS(=O)(=O)c1ccc2ccccc2c1)c1cccc(Cl)c1` showed a displacement of 4.8%.
With `CCOC(=O)C(C)Oc1cc2oc(=O)c(CC)c(C)c2cc1CC` (stereo unspecified) the displacement was -10.5%.
In the case of `O=C(CCC1CCCC1)Nc1c(F)c(F)c(F)c(F)c1F`, the displacement is reported as -9.3%.
Work on `Cc1ccc(-c2cc(NC(=O)COc3ccccc3)n[nH]2)cc1` yielded a displacement of 11%.
`O=C(Nc1ccc(-c2nc3cc(Cl)ccc3o2)cc1)c1ccc(Br)o1` was tested, and the displacement was -37.9%.
